# Source: the RNAGym collection of RNA variant scans (doi:10.1073/pnas.2313332121)
# This sample is rich in variants without activity.
# B1: TPR 5TU (parent)
# chain: GGAUCUUCUCGAUCUAACAAAAAAGACAAAUCUGCCACAAAGCUUGAGAGCAUCUUCGGAUGCAGAGGCGGCAGCCUUCGGUGGCGCGAUAGCGCCAACGUUCUCAACUAUGACACGCAAAACGCGUGCUCCGUUGAAUGGAGUUUAUCAUG
# Variants of: B1
# Assay: polymerase ribozyme fitness, log enrichment relative to wild type (log ratio); higher = more active; in vitro selection for triplet polymerase activity
# Outline: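 Mutant libraries of both subunits of a heterodimeric triplet polymerase ribozyme were PCR-built, transcribed, and selected once in triplicate, with frozen incubation at −7 °C and capture of gel-excised extended constructs on streptavidin beads before RT-PCR. Illumina sequencing of input and output libraries was filtered to genotypes with ≥10 input reads and ≥1 read per output. Fitness is the logarithm of genotype enrichment over wild-type enrichment, using inverse-variance-weighted replicate averages. The logarithm is base 2.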
row,Variant,polymerase ribozyme fitness (log ratio)
1,G34U A47U,-2.01
2,G34U A49G G71A A91C C93G,≤ -4.2
3,G34U A52U G58C C85G C87U U135C,≤ -4.2
4,G34U A60C G62A G70A G83C C95G U104C,≤ -4.2
5,G34U A64G U127A G128U,≤ -4.2
6,G34U C35A C85A C125A G136C,≤ -4.2
7,G34U C35U C54U G67C C85A U134A A150C,≤ -4.2
8,G34U C36U G80U C103G A106C,≤ -4.2
9,G34U C54G C76G C93G C105G A110G A142C,≤ -4.2
10,G34U C57A C76G G83A C116U,≤ -4.2
11,G34U G50C G70C U148C,≤ -4.2
12,G34U G50U A60U G94C A107C U144A,≤ -4.2
13,G34U G50U A91C,-4.01
14,G34U G58C C69U A91G,≤ -4.2
15,G34U G59A A73G C96G U135G,≤ -4.2
16,G34U G68U C85U C95A,≤ -4.2
17,G34U G71C G84A G94C C96A U102C,≤ -4.2
18,G34U G80C U102G U148G,≤ -4.2
19,G34U G83C G94A A119U C131A,≤ -4.2
20,G34U G83U A115G U145G,≤ -4.2
21,G34U G88A A97G U102A C114G C131G,≤ -4.2

row,Variant,polymerase ribozyme fitness (log ratio)
1,G34U U45A C93U C116G U145C,≤ -4.2
2,G34U U45G C95U,≤ -4.2
3,G34U U53A A60G C87G C95G C103A,≤ -4.2
4,G34U U53G C54A G80A C116U,≤ -4.2
5,G34U U56G G58A C69G G94C A97G U134C,≤ -4.2
6,G34U U82G C96G A106G U145C,-3.75
7,C35A A37G C38G A60G A89U U134G U139G G152C,≤ -4.2
8,C35A A47C C105G A107G,≤ -4.2
9,C35A A47C G86U,≤ -4.2
10,C35A A47G G71A C96A C105A C125U,≤ -4.2
11,C35A A47G G84U G88U G140C,≤ -4.2
12,C35A A49C A60G C85U C125G,≤ -4.2
13,C35A A49C C85U,≤ -4.2
14,C35A A49C U77C C103G U146A,≤ -4.2
15,C35A A52C G67U G68C C76U A115U A120C U134C,≤ -4.2
16,C35A A60C U90G C96A C108A U134G,≤ -4.2
17,C35A A60G C103U A107G U148G,≤ -4.2
18,C35A A89C C96A C116G C125G U135A A137G,≤ -4.2
19,C35A A91G,≤ -4.2
20,C35A A91G C131G,≤ -4.2
21,C35A A113G,≤ -4.2

row,Variant,polymerase ribozyme fitness (log ratio)
1,C35A C43G C72U A142C,≤ -4.2
2,C35A C43U C54U U61A G62U G94U G152U,≤ -4.2
3,C35A C51U C95G U127G U135A U145G,≤ -4.2
4,C35A C54A G88C G94A A98U C105U U127C G136C G152A,≤ -4.2
5,C35A C54G G83A,≤ -4.2
6,C35A C54G G83A C125A,≤ -4.2
7,C35A C54U C129A,≤ -4.2
8,C35A C57U A91G C95A A97G A106U G126U G141U,≤ -4.2
9,C35A C57U C93G U134A U139A,≤ -4.2
10,C35A C63U C87U G126U U130G U148C,≤ -4.2
11,C35A C63U G68A A91C C116G,≤ -4.2
12,C35A C69A C87A C93U C131A,≤ -4.2
13,C35A C75G U90G U146G,≤ -4.2
14,C35A C76A C93U A113U U130G A147G,≤ -4.2
15,C35A C76A G80C G86U G124U,≤ -4.2
16,C35A C76G,≤ -4.2
17,C35A C76U,-3.95
18,C35A C79G U151A,≤ -4.2
19,C35A C87A G124U U144C,≤ -4.2
20,C35A C87G U148C,≤ -4.2
21,C35A C87U,-4.03

row,Variant,polymerase ribozyme fitness (log ratio)
1,C35A C93G A98C C99U G141C,≤ -4.2
2,C35A C95A G128U G152A,≤ -4.2
3,C35A C95G U146A,≤ -4.2
4,C35A C95U A120C C125A U148G,≤ -4.2
5,C35A C99U G141C,≤ -4.2
6,C35A C99U U127G U135C U148C,≤ -4.2
7,C35A C108U U111C,≤ -4.2
8,C35A G42U G48A G68A A106C C116U A120U G141A,≤ -4.2
9,C35A G46A C103G C118G U135C,≤ -4.2
10,C35A G50A U55A C75G C114G U144G U151C,≤ -4.2
11,C35A G50C U55A G58U G88C A110G,≤ -4.2
12,C35A G50C U55A G86A C114A A122U G136C,≤ -4.2
13,C35A G58C C93A G128U A137C A150G,≤ -4.2
14,C35A G59U U78A,≤ -4.2
15,C35A G62C U109G A122U A142C,≤ -4.2
16,C35A G67A G80A A150U,≤ -4.2
17,C35A G68C C72U G84U G124A,≤ -4.2
18,C35A G68C G80C C93U G143A,≤ -4.2
19,C35A G70A C79U G81A,≤ -4.2
20,C35A G86A,≤ -4.2
